# Data taken from the supplement of paper PMC10126150.
# Sequences with one replicate were seen in a single cluster, so their values are uncertain.
# Tested on: ATP
# Test: switch fluorescence ratio, 500 uM ATP over buffer (Cy3 cluster intensity, sum of 5 cycles each) (fold (ratio)); higher = stronger signal-on switching upon ATP binding; sequences stand for … in TCGTCGGCAGCGTCAGATGTGTATAAGAGACAGTTTTTTTTTTTTTTTTTTTTTTTTT…TC
# Conditions: aptamer strand: ATP DNA aptamer (quencher-CACCTGGGGGAGTATTGCGGAGGAAGG + anchor), 100 nM annealed; ATP concentration: 500 uM; one replicate
# In short: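 Values give the fluorescence ratio for each switch-domain sequence, averaged from per-cluster ratios of summed target-cycle to summed buffer-cycle Cy3 intensity. The Cy3-labelled switching-strand clusters sat on a modified Illumina MiSeq flow-cell, were annealed to 100 nM quencher-labelled ATP aptamer, and were imaged in selection buffer, then after 15 min with 500 uM ATP at 22 °C. Five cycles ran with NaOH stripping and re-annealing between them, and clusters outside 100-1000 RFU were excluded.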
# 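Further: ATP exposure 15 min at 22 °C before imaging.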
row,Sequence,switch fluorescence ratio
1,TAGACCCGTT,0.973
2,CATTTTTCCG,0.974
3,AGCTTAAGAT,0.987
4,TGTCATAGAA,0.997
5,AAAGGACAAG,0.995
6,ACAATCACAC,1.1
7,GCGTGTACGT,1.01
8,CAGGCGTTAA,0.981
9,AGATCTTTCG,1
10,CATGTACTGA,1
11,CAGAAACCAG,1.04
12,ATGCGAATGC,1.03
13,GATGTGGT,0.979
14,ACGGATGGGT,1
15,ACTGATACGG,1.22
16,CGTGGATACA,1
17,GTGCAGCGTT,1.05
18,ATAGAAGGAC,0.993
19,CTTAGCTCCA,1.02
20,ACGGTGCGTT,0.969
21,TGCTGGCAGC,1.02
22,CTTGATGCCG,1.04
23,GGTGAGTGTG,0.999
24,GGTGGGTTAC,1.05
25,GGTGGTTTGC,1.11
26,GACTGTACAT,1.37

row,Sequence,switch fluorescence ratio
1,AAACGGCCGC,1.06
2,CCAGGCATTC,2.49
3,GAGTGTCGG,0.966
4,CATTAGCAGC,1.16
5,CTTGGTCT,1
6,GGTTCAGTTA,0.972
7,CTAGATATGG,1.05
8,TGGCTTGAGC,1.01
9,TTTCCGCAGC,4.62
10,CCGAAAATCC,1.35
11,ACAGTGCGTA,1.07
12,GGGTGACT,1.02
13,TGAGTAGACC,1.01
14,GGATACACAG,1.03
15,CGTATGCGT,0.983
16,GGGTCTTCGG,0.999
17,CCGTTAACTG,1.04
18,GGGGAGATTT,0.996
19,AAGTTCTTTC,1.02
20,GCTTGTACTA,1.01
21,TGTTCCTCAG,1.28
22,CCAGACCTTG,0.991
23,ATGGCGTTAG,1.01
24,CGACTATCAC,1.3
25,CGTTATGTTT,1.04
26,CTATCCGGC,1.01

row,Sequence,switch fluorescence ratio
1,GGTCCCCTAA,0.98
2,TGTCTCTTCA,1.04
3,CGCAATTGGA,2.45
4,CTTCTCTTTA,1
5,TATCAGCGG,0.994
6,CTCAGTCAGA,0.999
7,AGAGTAGTGG,0.968
8,GTGTTTTTAC,0.998
9,CGATGAGAGC,0.973
10,ACGGGATGCT,1.11
11,GCGGTAGACT,0.987
12,TACCTGTCTG,1.05
13,TAACATGAG,0.979
14,TGAGTACCGA,1.02
15,TGTCCAGAGT,1.04
16,ACTAAACTTA,1.06
17,CTGGAGGTGG,1.05
18,TTGCCAAAT,0.966
19,CGACCTCCTG,1.06
20,GGCTGGAGCG,0.989
21,GATCGACGAA,0.984
22,CTTGGCGTAT,1.02
23,GCGATTCTGT,1.03
24,GGTTATG,1.02
25,ATATCGTCC,0.965
26,AAAAGAAAGA,0.999

row,Sequence,switch fluorescence ratio
1,ACTACCTACT,1.31
2,AGAACCCTGA,1.15
3,GGTTTTAGTC,0.977
4,TATAGTCTAC,0.997
5,ACATGTCAAG,0.936
6,GTTAACCGA,1.08
7,GGGCCAAGCG,0.972
8,GGATGTAATG,0.975
9,CGAGCGATCA,1.29
10,AATATGTGTC,1.06
11,ATATTCCGAG,1.16
12,CTCTCCGGCC,2.57
13,CGGATTTAAA,0.887
14,GGTCACATAT,1.03
15,TGGCACGGAG,1
16,CAAGGGTAGC,0.973
17,CAAAAAAATC,0.987
18,GATCACCCGG,0.975
19,GGTCACATGA,1.05
20,GCGATCAAAA,1.02
21,CTGTATGAT,0.979
22,TTCAGTGTAC,1.1
23,CGGCGTGTCT,1.04
24,GGTTCTCTGG,0.98
25,GGACAAAAGC,0.994
26,ACGCTGTATG,1.05

row,Sequence,switch fluorescence ratio
1,AATTTCCTG,1.04
2,GGGGCTGTTC,0.996
3,CTAGTCGAGG,0.974
4,GGAACTCGGA,1
5,CGGACCTGGT,1.05
6,GACCCGGTGT,1.02
7,ATAAAAGCGA,1
8,GGGCTTAAGA,1.03
9,ATTACTGATG,1.01
10,ATCTGATCCA,1
11,GTGACAGACA,1.03
12,AGCTTAGACG,0.971
13,TTGAACACCG,1.13
14,AGCCGGCGAT,1.01
15,CCGGGGAGAT,1.01
16,ACATCGGCGC,1.02
17,GGCAGGCTCG,1.03
18,ACGGCGGGTG,1.1
19,AAGGAACCAT,1.03
20,TTACGAGTCG,1.01
21,TGACTGAGGA,1.01
22,CGGGCTAATC,1.13
23,TTGACCGATG,0.965
24,TTATGCATAA,1
25,ACAAAGTAAC,1.03
26,GTCAGGGAAC,0.965

row,Sequence,switch fluorescence ratio
1,CTAAAAGAGT,1.04
2,TAGGGCCGTA,1.03
3,CCTGCGGGTT,1.12
4,GTTAATTTAT,0.981
5,CCCAGGCTTG,1.09
6,ACGAGGCCAT,1.96
7,GTCGTTAGTG,0.978
8,TTTGGCCCTG,0.99
9,ACCCCTGACG,1.04
10,CTCGTTTTGG,1.08
11,TAACCGTAG,1.14
12,CGCATGTATG,1.07
13,AACGTGAAGA,1.02
14,GCTTCCTTCA,1.51
15,CTTTATGCCG,1.03
16,TCCGGGGACT,1.2
17,TGTGGACTTG,0.936
18,AACTGTTAGA,1.01
19,ATAGAAGGTA,0.978
20,GGGAAGAGT,0.968
21,TTTTTGCCAT,1
22,TACGTTTTCG,0.979
23,AGATAGGAGG,0.933
24,GACGGACTGT,1.21
25,CGGGAATGAG,0.968
26,GGTCCCTCTT,1.03

row,Sequence,switch fluorescence ratio
1,ATCGGGTT,0.998
2,AGCAATCCT,4.02
3,CGTTGCATGT,0.958
4,GGGTGTGTCG,0.985
5,CTTAGGGAAG,1.01
6,TCAAATACAA,1
7,GTCGTTTCGT,0.921
8,TGCTTGATTG,1.03
9,ACTAATCC,1.07
10,CGTCTGCTTA,1.26
11,CTATTAAAAT,0.984
12,AGAAGTGGCA,0.986
13,TTGTTACACT,1.03
14,TATGCAAGTG,1.06
15,GGCAATAAGG,1.06
16,AATTGAATGG,0.99
17,TGGGTAGTTA,0.999
18,CGAGAATCTG,0.953
19,CCTAATGTGG,1.02
20,AGATAAAGTC,1.01
21,CCATTGGACC,1.01
22,TTGGAGGTTG,0.976
23,GGGTTCGCGG,1.02
24,GCGTGCCCAC,0.981
25,CTGGGAGCCC,0.969
26,CAGTATGGGC,1.02

row,Sequence,switch fluorescence ratio
1,CAATAGGGCC,1.01
2,CACCGGTAAA,1.07
3,TTCCCAGCGA,2.68
4,CGATCATTGT,0.956
5,TCAGTGGCGA,1.03
6,CCAATTCGG,0.945
7,GGGGCTTAGG,1.01
8,CGAGGAAGAC,2.95
9,ATACTGGGCG,1.06
10,CCAAGTCGGA,1.04
11,CCACACGAT,1.03
12,TAGAAGTATG,1
13,GCGGGGTTCT,1.03
14,GTACTGTGCA,1
15,CCTGATTGTC,1.07
16,TTACCGTTGG,1.05
17,AGTCCATGTG,1.08
18,GCGTGTAGCT,1.02
19,ATAAAGGTG,1.34
